Drawing on publication PMC7819943, “Rice protein-binding microarrays: a tool to detect cis-acting elements near promoter regions in rice”, this text covers binding signal for 54 sequences.

This is one part of the list.

In the assay the target is T1, OsWOX13 (Oryza sativa, UniProt Q5QMM3 1-267).
T1 sequence: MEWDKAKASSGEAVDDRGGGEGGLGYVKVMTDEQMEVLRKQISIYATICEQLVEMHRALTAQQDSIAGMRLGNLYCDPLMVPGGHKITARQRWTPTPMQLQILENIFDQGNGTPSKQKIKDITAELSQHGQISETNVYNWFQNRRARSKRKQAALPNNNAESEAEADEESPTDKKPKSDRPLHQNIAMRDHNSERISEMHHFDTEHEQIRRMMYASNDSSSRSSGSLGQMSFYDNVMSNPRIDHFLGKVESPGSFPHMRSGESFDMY
The assay can be described thus: protein-binding microarray (RPBM); PBS, 2% BSA, 51.3 ng/ul salmon testes DNA, 50 uM zinc acetate, 200 nM TF, 25 C, 1 h; high values mean tight binding. The conditions noted are these: protein: recombinant; tags: N-terminal polyhistidine and DsRed monomer fusion (pET32a); label: CyDye5-dUTP incorporated in the synthesized complementary strand; 3' TTTTT single-stranded linker to array surface; dsDNA, one strand shown. Summed up:
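For the binding signal, per-feature fluorescence intensity was read in arbitrary units on an Axon 4000B scanner. Before scanning, a 2% BSA-blocked custom Agilent array made double-stranded with Cy5-dUTP was washed after 1 h at 25 °C with 200 nM protein and 50 µM zinc acetate. The proteins were Ni–NTA-purified transcription factors with N-terminal polyhistidine and DsRed fusions, expressed in E. coli BL21-CodonPlus.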
Turning to “TCCTTTTCAATATTAGATTGGTTTATTGTAGTACGAAGGGCGGAGTCACCTAGTGCAG”, the binding signal is 8130 fluorescence intensity (a.u.).
Next, “ATAGGAATCAGGTGCCAATTAACAACCCACGATTAGATGGCGGAGTCACCTAGTGCAG”: 9740 fluorescence intensity (a.u.); “TGAGAGCGTTTGTAGGAAGTTTAATTGACAATAGATTAGTCGGAGTCACCTAGTGCAG”: 5010 fluorescence intensity (a.u.); “CATCTCACCAGTTACGTTAATTAATGGTAACAGCGCAGCACGGAGTCACCTAGTGCAG”: 11800 fluorescence intensity (a.u.).
The result for “TGATGATGCCTGATTGGTACTCCTAGCCCTAGGAAGAAAACGGAGTCACCTAGTGCAG” reads 11400 fluorescence intensity (a.u.); that for “TTTCATGCATGTGTCAATTTATTTGATAACCATAGTCCACCGGAGTCACCTAGTGCAG”, 5710 fluorescence intensity (a.u.).
As to “ATTGGATTATTTGAGGTCGGGGAGGGGTACTTCAATGAATCGGAGTCACCTAGTGCAG”, the binding signal is 4410 fluorescence intensity (a.u.).
Next, “CCAATTGGAATGCATTGTCTATTTGTTGTCTAGATCTCTCCGGAGTCACCTAGTGCAG”: 3760 fluorescence intensity (a.u.); “TTATAAATCATAAAATAATAAATAAATAAGATGCCCGCGCCGGAGTCACCTAGTGCAG”: 6280 fluorescence intensity (a.u.); “TATCTAATCTTAATACAATTATTTCCTACTTTATTACTCCCGGAGTCACCTAGTGCAG”: 4340 fluorescence intensity (a.u.).
Consider “ATCAATCTTCTCAAATTTAGACTACCTCTAAATTTGACCCCGGAGTCACCTAGTGCAG”, for which the binding signal was 15400 fluorescence intensity (a.u.).
With “CGTTTATTAATCGTTCGTAATTCGAATTATGCTGGGGACACGGAGTCACCTAGTGCAG”, the binding signal was 5970 fluorescence intensity (a.u.).
Next, “TTTATTAAATTTTCCATGATTAGCTACGCTCTTTGGAATTCGGAGTCACCTAGTGCAG”: 32400 fluorescence intensity (a.u.); “CTAAAATTGGAGACGTCACTACAAACGTACGCACTCTTTGCGGAGTCACCTAGTGCAG”: 6760 fluorescence intensity (a.u.).
Next, “CCACGGAGTTTACGGGTCAATCAGATACTCGGAATTTGGACGGAGTCACCTAGTGCAG”: 4860 fluorescence intensity (a.u.).
Consider “AAACCTAATTAATTCATCATTAGTAAATGTTTACCGTAGCCGGAGTCACCTAGTGCAG”, for which the binding signal is 30200 fluorescence intensity (a.u.).
Next, “TTTGACAGGAGTGATAGGCCTACATGAGCCCAAATGCAAACGGAGTCACCTAGTGCAG”: 11700 fluorescence intensity (a.u.); “AGATGATTGATTTTCAGGTGATGAACAGGGTTACTGTTTTCGGAGTCACCTAGTGCAG”: 63000 fluorescence intensity (a.u.); “AATCTGTAATTTGTTTTGTTATTAGTCTACATTTAATACTCGGAGTCACCTAGTGCAG”: 12500 fluorescence intensity (a.u.).
The result for “GTAGAGTAATTAAGTATATCCTTTTGTTCTAGTACATCGGCGGAGTCACCTAGTGCAG” reads 4870 fluorescence intensity (a.u.).
Next, “CCCGTGGATTGCCGCCTGATTGCTTCAAAAGTGGAGTACGCGGAGTCACCTAGTGCAG”: 21500 fluorescence intensity (a.u.).
“TGATTAATTTCATGGCTGTCTACTGCTCCTGCAACACTGGCGGAGTCACCTAGTGCAG”: the binding signal is 12800 fluorescence intensity (a.u.).
Next, “CTCCCCAATCAATATAGCTCATAGCTGCTACGAGTCTATACGGAGTCACCTAGTGCAG”: 12600 fluorescence intensity (a.u.); “GCCATTTTGCACCTTAATTAATTTTATGCTGTCTATTCTCCGGAGTCACCTAGTGCAG”: 14500 fluorescence intensity (a.u.).
The result for “TTGATAAATTTTCTTTCACAAATTTGACAAAAGTAATTATCGGAGTCACCTAGTGCAG” reads 12700 fluorescence intensity (a.u.); that for “AGGAATCGGAATTGATTTCATGCACTGATCGATCCATCCACGGAGTCACCTAGTGCAG”, 7970 fluorescence intensity (a.u.); that for “CGGGACCTAATTGATGGTCATATGATGACAGAAGCTTGGACGGAGTCACCTAGTGCAG”, 42400 fluorescence intensity (a.u.).
As to “TTTAAAGGATTGATTGCATTCGAGGGTAGAAGCACCACCACGGAGTCACCTAGTGCAG”, the binding signal is 33000 fluorescence intensity (a.u.).
“TCATTTGATTACTAGATTAGAAGAGTCTATACATGTATCACGGAGTCACCTAGTGCAG”: the binding signal is 15500 fluorescence intensity (a.u.).
The result for “AAGATTTAATTGCAACGAATTTAATGGTGTAATCGGATCACGGAGTCACCTAGTGCAG” reads 18500 fluorescence intensity (a.u.); that for “AAGTAATTTAATGAAATCTAAAAGTAATTTAGATATATTACGGAGTCACCTAGTGCAG”, 6760 fluorescence intensity (a.u.).
The result for “TGAAAGTAATTTGATGCTATAAGTCAAAGTTAAAGAGATGCGGAGTCACCTAGTGCAG” reads 3500 fluorescence intensity (a.u.); that for “GAGCGAGTCATCAAACTCATCAATCATTCAGCTCATCATCCGGAGTCACCTAGTGCAG”, 6090 fluorescence intensity (a.u.).
The result for “ATGTAATTGATATGGACTCATCTTTGGATATAAAGCAACTCGGAGTCACCTAGTGCAG” reads 43400 fluorescence intensity (a.u.).
As to “AACAAATCACATGCTCTAAGTGTTAAATAAATGGATCACCCGGAGTCACCTAGTGCAG”, the binding signal was 4470 fluorescence intensity (a.u.).
The result for “TCGGATAAGACCTTTAGAAATGATTGAAATTCGTCGAGAACGGAGTCACCTAGTGCAG” reads 4670 fluorescence intensity (a.u.); that for “AGCTGATTGTTATGAAACTATTAGGAATATAGAGATCCACCGGAGTCACCTAGTGCAG”, 43800 fluorescence intensity (a.u.); that for “TTACATTATAATTAACTGGAATATATGTAGTTAGAATAATCGGAGTCACCTAGTGCAG”, 20100 fluorescence intensity (a.u.).
The result for “ATTACATATGTAATTTAGTGACTTACAATGTAAACACACGCGGAGTCACCTAGTGCAG” reads 5330 fluorescence intensity (a.u.).
The result for “CTTAATTGCGCGCGAATGGAGTAATACTAGTACTAGTATACGGAGTCACCTAGTGCAG” reads 15100 fluorescence intensity (a.u.).
On to “GTTTCGATTCCGACGTTAATTACGTTTCTCAGTGTATCAACGGAGTCACCTAGTGCAG”, for which the binding signal is 4410 fluorescence intensity (a.u.).
On to “GAGAAGTCCAATAAATTGGATGATCCAACACGTCCTGCTCCGGAGTCACCTAGTGCAG”, for which the binding signal is 3540 fluorescence intensity (a.u.).
The result for “CCTTAATTCCATCTCCTCTCCGTTTTCTTGATTAAATCCTCGGAGTCACCTAGTGCAG” reads 5530 fluorescence intensity (a.u.); that for “GTGTGTATAAATTGATAGCAGCGTGCCTCTCTTCTTCTTCCGGAGTCACCTAGTGCAG”, 19300 fluorescence intensity (a.u.); that for “ATGAAAACTCAATCAATCATACGTGAATACCACCTCATTTCGGAGTCACCTAGTGCAG”, 15300 fluorescence intensity (a.u.).
The result for “GCACCTGATTAGTGATCATCACCTCTCACAAGCAGTCATCCGGAGTCACCTAGTGCAG” reads 39000 fluorescence intensity (a.u.).
In the case of “TCCAATATCTGATTAATTATCCGATATGACACACATGAACCGGAGTCACCTAGTGCAG”, the binding signal was 16900 fluorescence intensity (a.u.).
The result for “TTAATTTGTTAATTTATAACTCCCATTCCATGAACATTATCGGAGTCACCTAGTGCAG” reads 22000 fluorescence intensity (a.u.).
On to “CCCCAAATTAATTAACCAGGCTAATCATCCATTAAGAGACCGGAGTCACCTAGTGCAG”, for which the binding signal is 24200 fluorescence intensity (a.u.).
Next, “TCCAATTTACAAGATAATTCACATAACAGTACAACCTACTCGGAGTCACCTAGTGCAG”: 5630 fluorescence intensity (a.u.); “TGATTAGTGATTAGATTGAACGGATTTCTCCCCTATTTGCCGGAGTCACCTAGTGCAG”: 30200 fluorescence intensity (a.u.); “TGTAAATTATGTTGTACATCCTTTCAAGATCAATAACTACCGGAGTCACCTAGTGCAG”: 10500 fluorescence intensity (a.u.).
Next, “ATATAAATTAATATGTGCCGATTTTCACCCGGCATACATACGGAGTCACCTAGTGCAG”: 14100 fluorescence intensity (a.u.); “TCATGGTGATTGCGGCATGAGAGAGTGAGGGTTCTGCGAGCGGAGTCACCTAGTGCAG”: 10300 fluorescence intensity (a.u.).
